Assay results taken from PubChem BioAssay AID1814 (Broad Institute, 2009).
Hit rate of the full screen: of about 300,000 compounds, about 22,000 (7.3%) were called active. This list was built around the results that the source calls inconclusive (neither active nor inactive); the mix of calls is not that of the screen. Cut-off read from the data, not from the text of the source: active = activity score below about -60%; inconclusive = mostly about -28% to -61%; inactive = positive scores.

Assay: Activators via SNCA 5'UTR binding, MLPCN (AID 1814)
Conditions: alpha-synuclein 5'UTR reporter, activators screen; stronger effect = lower value; tested at 7.5 µM

Activity score, active:
O=C(NCc1ccco1)c1cc(-c2ccc3c(c2)OCO3)on1 -96.7%, O=C(Nc1cccc(F)c1)Nc1ccc2c(c1)OCO2 -99%, O=C(N/N=C/c1ccc[nH]1)c1ccc(Cl)cc1 -121%, Cc1cccc(Nc2nnc(SCC(=O)NC(=O)Nc3ccc4c(c3)OCCO4)s2)c1 -95.2%, CCN(CC)CCn1c(=O)n(-c2ccc(Cl)cc2)c(=O)c2c3c(sc21)CN(C)CC3 -66.5%, CNC(=S)N/N=C/c1ccc(N(C)C)cc1 -88.7%, COC(=O)c1ccsc1NC(=O)CCc1ccccc1 -109%, COc1ccc(CN2CCn3ncc(C(=O)Nc4ccccc4)c3C2=O)cc1 -85.8%, CCCCSc1nnc(-c2ccc(C)cc2)n1C -109%, COCC1CCN(C(=O)c2cc(COc3ccc(OC)c4ccccc34)on2)C1 (configuration not stated) -184%, COc1ccc(OCc2cc(C(=O)N3CCCCCC3)no2)c(Cl)c1 -90.1%, C[C@@H]1C=CC(=O)O[C@@H]1c1ccc(Cl)cc1 -194%, COC(=O)c1c(-c2ccccc2)csc1NC1=NS(=O)(=O)c2ccccc21 -121%, Cc1cccc(/C(N)=N/OC(=O)CCCc2ccccc2)c1 -88.8%, Cc1ccc(C(=O)Nc2cccc(C(=O)N3CCN(C)CC3)c2)cc1 -97.8%, COc1ccc(NC(=O)c2csc3c2CCCC3)cc1 -193%, O=C(N/N=C/c1cccc(F)c1)c1ccc(Cl)cc1 -150%

Activity score, inactive:
CCCn1c(N2CCN(CC(=O)c3c(C)n(C)c4ccc(OC)cc34)CC2)nc2c1c(=O)[nH]c(=O)n2C 62.6%, O=[N+]([O-])c1cccc(NC(=S)Nc2nc(-c3ccc(Cl)cc3Cl)cs2)c1 72.6%, C=CC(C)(C)c1c(O)c(CC=C(C)C)c(O)c2c(=O)c3ccc(O)c(O)c3oc12 73.3%, CCCc1sc(N/N=C/c2ccccn2)nc1-c1ccc(Br)cc1 81.8%, Cc1csc(SCC(=O)c2cc(C)n(Cc3cccs3)c2C)n1 73%, COCc1cc(C)nc2sc(C(=O)NN)c(-n3cccc3)c12 71.4%, O=C(Nc1ccc(F)cc1)c1nc(S(=O)(=O)Cc2ccccc2)ncc1Cl 66.6%, O=C(CCCN1C(=O)/C(=C/c2ccccc2Cl)SC1=S)NNC(=O)c1ccc(Cl)cc1Cl 71.3%, Nc1[nH]n2c(=O)cc(-c3ccccc3)nc2c1N=Nc1ccccc1 67.6%, Cn1c(=N)n(CC(=O)c2ccc(F)cc2)c2ccccc21 75.7%, COc1cccc(C(NC(C)=O)c2ccc3cccnc3c2O)c1 (configuration not stated) 72.3%, CCCNC(=O)c1ccc2c(=O)c(O)c(-c3ccc(OC)cc3)[nH]c2c1 87.6%, CN(C)Cc1ccccc1Sc1ccc2c(c1)CCCC2 104%, COc1cc(-c2noc(C)c2/C=C/c2cccc([N+](=O)[O-])c2)cc(OC)c1OC 69.2%, CC(NC(=O)CCc1nnc(-c2ccc(-c3ccccc3)cc2)o1)c1nccs1 (configuration not stated) 89.4%, O=C(Oc1ccc(N2C(=O)CCC2=O)cc1)c1ccccc1Cl 59.2%, Cc1nc2ccc(CN(C)c3ccc(C(=O)N[C@@H](CCC(=O)O)C(=O)O)s3)cc2c(=O)[nH]1 103%, COc1ccc(N2CCc3c(C)nc4c(OC)cccc4c32)cc1 89.1%, OC1(c2ccc(Cl)cc2)CCN(Cc2cn[nH]c2-c2ccccc2)CC1 69.8%, O=C(COc1ccc(/C=N/NC(=O)c2cc3ccccc3o2)cc1Br)Nc1ccccc1 116%, COC(=O)c1ccc2nc(Nc3nc4ccc(F)cc4s3)sc2c1 75.1%, O=C(CCN1CCN(c2ccccc2)CC1)N/N=C/c1ccccc1O 70.6%, COc1ccc(CNC[C@@H](CCCCN(C)Cc2ccc(OC)cc2)N2C[C@H](c3ccccc3)N(CCc3ccc(Cl)c(Cl)c3)C(=O)C2=O)cc1 92.2%, Oc1ccc(CN2CCc3ccccc3C2)c2cccnc12 103%, COc1ccc(-c2nnc(NC(=O)c3ccc(S(=O)(=O)N4COCC4(C)C)cc3)o2)cc1 76.1%, O=C(Nc1ccc(S(=O)(=O)N2CCCCCC2)cc1)c1[nH]ncc1[N+](=O)[O-] 86.1%, Oc1c(N=NC(=S)Nc2ccccc2F)c2ccccc2n1Cc1ccccc1F 86.8%, N/C(=N\OC(=O)c1cccc2ccccc12)c1ccccn1 102%, C=CCn1c(O)c(N=NC(=S)Nc2ccccc2F)c2ccccc21 67.4%

Activity score, inconclusive:
COc1cccc(-c2csc(N3CCN(C(=S)Nc4ccccc4C)CC3)n2)c1 -57%, Cc1ccc(NC(=O)CC2=NC(=O)C(CC(=O)Nc3ccccc3C)S2)cc1 (configuration not stated) -59.8%, CC(C)OCCCNC(=O)NC(=O)c1ccc(Cl)cc1 -52.6%, Cc1ccc(S(=O)(=O)[N-]c2nc3ccccc3nc2-n2cc[n+](CCC(C)C)c2)cc1 -45.1%, Cc1cc(C)nc(Sc2nc(Nc3ccccc3)nc(Sc3nc(C)cc(C)n3)n2)n1 -57.2%, Cc1ccccc1NC(=O)c1ccc(S(=O)(=O)C(F)F)cc1 -43.6%, COc1ccc(C(=O)Nc2ccccc2C(=O)NCCN2CCOCC2)cc1 -47.4%, O=C(c1ccc(-c2nc3ccccc3s2)o1)N1CCN(c2ccccc2O)CC1 -52.4%, Cc1nc2ccc(NC(=O)c3cnc(Cl)c(Cl)c3)cc2s1 -46.8%, CSc1ccc(CCNC(=O)c2cccc3c2C(=O)N(C2CCCCC2)C3)cc1 -49%, Cc1ccc(C(=O)NCCn2cc(SCC(=O)N3CCOCC3)c3ccccc32)cc1 -58.6%, COc1ccc(C(=O)CC(c2ccccc2)S(=O)(=O)c2ccc(C)cc2)cc1 (configuration not stated) -58.8%, CC(=O)c1cnc(Nc2ccccc2)s1 -59.2%, Cc1ccc(C(=O)NC(=S)NCc2ccco2)cc1 -54.3%, O=C(NCc1ccc2c(c1)OCO2)NC1CCCCC1 -32.1%, CCOC(=O)c1sc(NC(=O)c2ccc3nc[nH]c3c2)nc1C -49.1%, COc1cc(/C=C2\CCC(C3CCCC3)C2=O)ccc1OC(C)C (configuration not stated) -51.8%, CCOc1ccccc1NC(=O)Cn1nnc(C(=O)NCCc2ccc(OC)c(OC)c2)c1N -60.6%, CC(C)CNC(=O)c1ccc(NC(=O)c2cccs2)cc1 -58.8%, C=CC(=O)N1C/C=C\C(c2ccc(OC)cc2)N(Cc2ccc(F)cc2)C(=O)C1 (configuration not stated) -43.5%, CC(C)Nc1nc(Cl)nc(Nc2ccccc2)n1 -61%, Clc1ccc(OCCSc2ncccn2)c2ccccc12 -54%, NC(=O)c1cccnc1Nc1ccccc1F -45.1%, Cc1cccc(NC(=S)NC(=O)/C=C/c2ccco2)c1 -59.8%, CCOc1cc(C2c3c(n[nH]c3C)C(=O)N2c2ccc(C)cc2)ccc1O (configuration not stated) -50.7%, CCN(CC(=O)Nc1c(F)cccc1F)C(=O)c1ccc(COc2ccccc2)cc1 -44.5%, COc1cccc(/C=N/Nc2nnc(C)n2N)c1O -51%, O=C(CCS(=O)(=O)c1ccc(Br)s1)N1CCc2ccccc21 -55.7%, COc1ccc(OC)c(C(=O)COC(=O)c2ccccc2O)c1 -41.1%, Cc1cnc(NC(=O)NCC2CCCC(CNC(=O)Nc3ncc(C)s3)C2)s1 (configuration not stated) -56.3%, COc1ccccc1NC(=O)c1csc2c1CCC(C)C2 (configuration not stated) -59.6%, CCn1nnnc1NC(=O)c1cccc(OC)c1 -52%, CC(C)CSc1ncc(-c2cccc(C(F)(F)F)c2)cn1 -53.2%, O=C(Nc1c2ccccc2nc2ccccc12)C(Cl)(Cl)Cl -49.7%, CCn1c(Cc2cccn2C)nnc1SCC(=O)c1ccc(C)cc1 -60.4%, CCN(CC)C(=O)CSc1nnc2sc3ccccc3n12 -58.6%, CCCCOC(=O)Nc1nc(C)c(C(=O)OCC)s1 -60.5%, O=C(Nc1ccc(N2CCN(C(=O)c3cccs3)CC2)cc1)c1ccccc1Cl -55.4%, CCn1c(/C=C/c2ccccc2[N+](=O)[O-])nc2ccccc2c1=O -57.7%, Cc1c(C(=O)O)cccc1-c1ccc(/C=C2/NC(=O)N(c3ccccc3)C2=O)o1 -53.6%, O=C(NCC1CCCO1)C1CC(=O)N(C2CCCCCC2)C1 (configuration not stated) -59.9%, COC(=O)c1cccc(-n2c(C)cc(C=O)c2C)c1C -35.1%, O=C(c1cc(-c2ccccc2)nc2ccccc12)N1CCN(c2ccccn2)CC1 -48.6%, Cc1ccc(NC(=O)N2CCCC(c3nc(-c4ccc(F)cc4)no3)C2)cc1 (configuration not stated) -60.3%, CCN1C(=O)C(C(=O)Nc2ccc(OC)cc2)C2CC1(C)Oc1ccccc12 (configuration not stated) -54.2%, Cc1ccccc1NC(=S)NCCc1ccc(S(N)(=O)=O)cc1 -45.8%
